Test results reported in a compilation of properties of binary mixtures (doi:10.1021/acs.jpcb.0c03296).
Some of these densities may be calculated back from excess volumes.

Experiment: xn = mol fraction of the nth substance listed
Details: 100 kPa

C[N+](C)(C)CCO.O=S(=O)([N-]S(=O)(=O)C(F)(F)F)C(F)(F)F + OCCO
mass density [kg/m3]
Details	298.1 K	303 K	308.1 K	313 K	318.1 K	323 K	328.1 K
x1 = 0.14	1278.8	–	1270.7	1266.6	1262.5	–	1254.2
x1 = 0.2	1319.6	1315.4	1311.2	1307	1302.7	1298.5	1294.1
x1 = 0.333	1384.9	1380.6	1376.2	1371.8	1367.4	1363	1358.6
